# PubChem BioAssay AID504333 (National Center for Advancing Translational Sciences (NCATS), 2011)
# Out of some 360,000 compounds screened, about 16,000 (4.4%) were called active. Inconclusive means that the source gave no clear call. Such entries were picked first, then a sample of the others. The call rests on the fitted dose curve; in most records, active means well fitted inhibition curve with a large enough effect; inconclusive means small, poorly fitted or top-dose-only effect; inactive means no such curve, though single readings can be large or run the other way. A potency beside an inconclusive call is a rough fit, not a confirmed value.
# Target: Bromodomain adjacent to zinc finger domain protein 2B (Homo sapiens) (UniProt Q9UIF8)
# UniProt Q9UIF8, sequence (Q9UIF8 whole entry, looked up, the tested form may be a part): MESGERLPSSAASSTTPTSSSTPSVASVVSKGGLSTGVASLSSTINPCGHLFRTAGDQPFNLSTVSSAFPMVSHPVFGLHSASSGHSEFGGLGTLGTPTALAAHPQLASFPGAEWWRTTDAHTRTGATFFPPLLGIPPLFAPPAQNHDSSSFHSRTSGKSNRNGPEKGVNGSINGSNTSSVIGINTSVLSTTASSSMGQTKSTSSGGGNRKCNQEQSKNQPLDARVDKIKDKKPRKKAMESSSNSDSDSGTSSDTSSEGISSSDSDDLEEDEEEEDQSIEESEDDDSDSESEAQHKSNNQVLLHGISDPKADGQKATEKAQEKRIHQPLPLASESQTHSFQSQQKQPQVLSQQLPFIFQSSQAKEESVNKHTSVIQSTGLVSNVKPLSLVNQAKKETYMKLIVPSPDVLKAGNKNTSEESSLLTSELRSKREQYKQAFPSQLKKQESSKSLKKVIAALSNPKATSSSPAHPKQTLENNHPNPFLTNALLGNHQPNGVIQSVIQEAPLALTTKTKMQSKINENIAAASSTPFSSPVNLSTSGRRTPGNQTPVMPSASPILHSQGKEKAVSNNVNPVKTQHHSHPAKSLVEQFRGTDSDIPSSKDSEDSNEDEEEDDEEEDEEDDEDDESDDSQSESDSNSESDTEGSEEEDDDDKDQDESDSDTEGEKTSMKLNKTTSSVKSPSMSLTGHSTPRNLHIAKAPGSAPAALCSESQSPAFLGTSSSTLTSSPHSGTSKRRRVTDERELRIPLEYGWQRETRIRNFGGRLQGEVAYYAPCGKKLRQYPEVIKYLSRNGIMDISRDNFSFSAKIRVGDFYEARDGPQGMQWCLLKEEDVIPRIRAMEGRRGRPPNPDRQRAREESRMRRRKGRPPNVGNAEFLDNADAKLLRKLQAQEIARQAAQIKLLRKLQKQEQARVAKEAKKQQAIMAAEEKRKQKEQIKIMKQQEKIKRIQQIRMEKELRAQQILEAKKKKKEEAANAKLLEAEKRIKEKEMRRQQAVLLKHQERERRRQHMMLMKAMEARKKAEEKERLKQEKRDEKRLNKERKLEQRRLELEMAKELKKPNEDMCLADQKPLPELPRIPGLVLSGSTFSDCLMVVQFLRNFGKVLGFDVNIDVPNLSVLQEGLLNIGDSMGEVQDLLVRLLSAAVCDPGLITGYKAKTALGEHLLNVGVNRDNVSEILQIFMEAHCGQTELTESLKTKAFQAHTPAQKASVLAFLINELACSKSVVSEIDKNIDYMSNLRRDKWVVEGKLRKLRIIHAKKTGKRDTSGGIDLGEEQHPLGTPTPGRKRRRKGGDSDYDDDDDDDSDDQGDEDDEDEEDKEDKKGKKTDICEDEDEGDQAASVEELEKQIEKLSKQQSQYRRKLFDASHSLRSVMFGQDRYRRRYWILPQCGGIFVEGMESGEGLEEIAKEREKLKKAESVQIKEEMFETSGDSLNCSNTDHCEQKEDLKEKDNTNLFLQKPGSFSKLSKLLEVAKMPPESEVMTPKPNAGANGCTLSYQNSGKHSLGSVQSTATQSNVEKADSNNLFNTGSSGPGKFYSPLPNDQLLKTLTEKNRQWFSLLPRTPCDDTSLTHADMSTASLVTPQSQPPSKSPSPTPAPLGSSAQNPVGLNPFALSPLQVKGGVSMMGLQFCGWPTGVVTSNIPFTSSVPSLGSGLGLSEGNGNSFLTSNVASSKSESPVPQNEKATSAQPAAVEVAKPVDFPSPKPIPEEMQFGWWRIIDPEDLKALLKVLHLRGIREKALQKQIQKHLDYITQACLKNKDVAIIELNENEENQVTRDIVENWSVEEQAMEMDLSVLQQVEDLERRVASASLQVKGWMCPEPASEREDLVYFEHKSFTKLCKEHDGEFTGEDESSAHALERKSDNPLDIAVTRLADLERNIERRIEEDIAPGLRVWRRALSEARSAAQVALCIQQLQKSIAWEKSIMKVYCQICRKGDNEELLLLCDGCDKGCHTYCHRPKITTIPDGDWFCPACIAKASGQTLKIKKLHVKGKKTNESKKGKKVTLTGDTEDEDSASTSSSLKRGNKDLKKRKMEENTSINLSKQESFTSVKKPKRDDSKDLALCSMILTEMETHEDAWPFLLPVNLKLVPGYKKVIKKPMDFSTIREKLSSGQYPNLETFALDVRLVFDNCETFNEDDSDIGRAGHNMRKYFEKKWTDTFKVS
# Assay: qHTS Assay for Inhibitors of BAZ2B; further: nearly all actives have a fitted effect of over 60% in size
# Settings: AlphaScreen BAZ2B-H3K14Ac peptide displacement; activity change, negative = inhibition: at 114 µM (top of the series) unless noted
# Procedure, shortened: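 Inhibition is scored as reduced AlphaScreen emission. The BAZ2B/b-H3(5-23)K14Ac complex (50 nM each) in PBS pH 7.4, 0.01% Tween-20 meets compound (up to 110 uM) for 30 min at RT before bead addition.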
# On the % scale 0 is the no-effect control and ±100 the full control effect; potency means the concentration at half of the fitted maximal effect; tags describe the fitted curve by direction and shape.
Structure (SMILES),Potency,"activity change, negative = inhibition"
O=C(Nc1nccs1)c1cn(-c2ccccc2)nc1-c1ccncc1,"inconclusive: 50.1 µM [inhibitor, partial curve]",–
CCOC(=O)c1ccc(N2C(=O)Cc3ccccc3C2=O)cc1,–,inactive: -14.4%
CNC(=O)c1ccc(Nc2nnc(-c3ccc(C)c(S(=O)(=O)NCC4CCCO4)c3)c3ccccc23)cc1 (stereo not given),"inconclusive: 79.4 µM [inhibitor, single point]",–
CCCCCCCNC1=CC(=O)CC(c2ccco2)C1 (stereo not given),"inconclusive: 50.1 µM [inhibitor, partial curve]",–
Cc1cccc(C(=O)N2CCCC(Nc3ccc(C(C)C)cc3)C2)n1 (stereo not given),"inconclusive: 70.8 µM [inhibitor, single point]",–
FC(F)(F)c1cccc(OCC2CNC(=S)O2)c1 (stereo not given),–,inactive: -12.3%
COc1ccc(Cn2nnnc2C(c2ccc(N(C)C)cc2)N2CCC(C)CC2)cc1 (stereo not given),active: 28.2 µM,–
Cc1nnc(Nc2ccc(C(=O)O)cc2)[nH]c1=O,–,inactive: -3.98%
CN(CCC#N)C(=O)COC(=O)c1c2c(nc3ccccc13)/C(=C/c1ccco1)CC2,active: 44.7 µM,–
Cc1sc2nc(CSc3nnnn3-c3ccc(Cl)cc3)[nH]c(=O)c2c1C,–,inactive: 0.951%
COc1ccc(C(=O)NC2CCN(S(=O)(=O)c3ccccc3F)CC2)cc1,–,inactive: -5.21%
COc1ccccc1C(=O)N1CCN(Cc2c[nH]c3ccccc23)CC1,active: 50.1 µM,–
C[C@](N)(Cc1ccc(O)c(O)c1)C(=O)O,active: 15.8 µM,–
Cc1ccc(C)c(N2CCN(C(=O)C3CCCN(S(=O)(=O)c4cccc5nonc45)C3)CC2)c1 (stereo not given),"inconclusive: 22.4 µM [inhibitor, full curve]",–
COc1ccc(S(=O)(=O)NNC(=S)NCCc2ccccc2)c(OC)c1,–,inactive: -18.6%
CCCc1c(C(=O)N/N=C/C(C)=C/c2ccco2)nnn1-c1nonc1N,"inconclusive: 70.8 µM [inhibitor, single point]",–
CC(C)(C)c1ccc(OCC(=O)N(Cc2cccs2)C2CCS(=O)(=O)C2)cc1 (stereo not given),–,inactive: 5.17%
O=C(O)c1ccc2c(c1)C1C=CCC1C(c1ccncc1)N2 (stereo not given),active: 56.2 µM,–
O=C(NCCN1CCCCC1)c1ccc(Cn2c(SCc3ccc(F)cc3)nc3cccnc32)cc1,–,inactive: -11.5%
COc1ccc(/C=c2/sc3nc(-c4ccccc4)c(-c4ccccc4)n3c2=O)cc1,"inconclusive: 2.82 µM [inhibitor, full curve, poor fit]",–
CC(/C=C/c1ccccc1)=N\NC(=S)NC(C)C,"inconclusive: 56.2 µM [inhibitor, partial curve, poor fit]",–
CN(C)c1ccc(CN(Cc2ccco2)C(=O)c2ccc(F)cc2)cc1,active: 35.5 µM,–
Cn1cnnc1Sc1nc2ccccc2nc1NS(=O)(=O)c1ccccc1,"inconclusive: 89.1 µM [inhibitor, single point]",–
COc1ccccc1-c1nc(-c2ccccc2)nc(N2CCN(C)CC2)c1C#N,"inconclusive: 44.7 µM [inhibitor, partial curve]",–
CCOC(=O)C(=O)CC(=O)c1ccc2c(c1)OCCO2,active: 50.1 µM,–

Structure (SMILES),Potency,"activity change, negative = inhibition"
COc1c(Cl)cc(C(=O)Nc2ccccc2C(=O)O)cc1Cl,"inconclusive: 89.1 µM [inhibitor, single point]",–
O=C1C2CC=CCC2C(=O)N1c1n[nH]c(Cc2ccccc2)n1 (stereo not given),"inconclusive: 89.1 µM [inhibitor, single point]",–
CCOC(=O)C1CCCCN1Cc1ccc(OC)c(OC)c1OC (stereo not given),active: 31.6 µM,–
Cc1cc(C(C)(C)C)ccc1OCCn1ccnc1,active: 35.5 µM,–
O=C(Nc1ccccc1N(C(=O)c1ccco1)S(=O)(=O)c1cccs1)c1ccco1,–,inactive: -0.724%
Nc1cccc2c(=O)c3ccccc3[nH]c12,"inconclusive: 56.2 µM [inhibitor, partial curve]",–
Cc1nn(CCC(=O)O)c2nc(-c3cccnc3)cc(C(F)(F)F)c12,–,inconclusive: -40.8% [inhibitor]
COc1ccccc1N1CCN(S(=O)(=O)c2ccc(-n3cnnn3)cc2)CC1,"inconclusive: 63.1 µM [inhibitor, partial curve, poor fit]",–
CCc1ccc(C2NC(=S)NC3=C2C(=O)N(c2ccccc2OC)C(c2ccc(CC)cc2)N3)cc1 (stereo not given),"inconclusive: 79.4 µM [inhibitor, single point]",–
S=c1[nH]c(-c2ccccc2)cs1,active: 39.8 µM,–
Cc1ccccc1N(CC(=O)N/N=C/c1cc(C)n(-c2ccccc2C)c1C)S(C)(=O)=O,"inconclusive: 56.2 µM [inhibitor, partial curve, poor fit]",–
COc1cccc(NC(=O)C2CCCN2S(=O)(=O)c2ccc3nc(-c4ccccc4)[nH]c3c2)c1 (stereo not given),–,inactive: -1.14%
Cc1cc(C(=O)c2ccccc2)c(NC(=O)CCl)s1,"inconclusive: 44.7 µM [inhibitor, partial curve]",–
CC(=O)c1ccc(N2CCN(c3ccc(S(=O)(=O)NCCN(C)C)cc3[N+](=O)[O-])CC2)cc1,"inconclusive: 39.8 µM [inhibitor, partial curve]",–
COc1ccc(OCc2nc(C#N)c(NCc3ccccc3Cl)o2)cc1,"inconclusive: 12.6 µM [inhibitor, full curve]",–
Cc1c(C(=O)OCC2CCCO2)[nH]c2c1C(=O)CC(c1ccc(N(C)C)cc1)C2 (stereo not given),active: 44.7 µM,–
C/C(=N/Nc1cc(-c2ccccc2)nc(-c2ccccc2)n1)c1ccc(O)cc1,–,inactive: -36.1%
Cc1ccc(N2C(=O)C3Sc4[nH]c(=O)sc4C(c4ccccc4)C3C2=O)cc1 (stereo not given),active: 50.1 µM,–
CC(C)=NNc1nc2c(c(=O)[nH]c(=O)n2C)n1CCc1ccccc1,"inconclusive: 89.1 µM [inhibitor, single point]",–
CC(C)CC(NC(=O)OC(C)(C)C)C(=O)NCc1ccccc1 (stereo not given),–,inactive: -3.52%
Cc1cccc(C(=O)O/N=C2\CCCc3ccccc32)c1,–,inactive: 80.7%
O=[N+]([O-])c1ccccc1N/N=C/c1cccc(O)c1O,"inconclusive: 89.1 µM [inhibitor, single point]",–
Cc1ccc(S(=O)(=O)NCC(C)NS(=O)(=O)c2ccc(C)cc2)cc1 (stereo not given),"inconclusive: 89.1 µM [inhibitor, single point]",–
O=C(/C=C/c1cn(-c2ccccc2)nc1-c1ccccc1)Nc1ccc(C(=O)O)cc1,"inconclusive: 79.4 µM [inhibitor, partial curve]",–
COc1ccc(-n2c(C)c(C)c3c(NCCN(C)C)ncnc32)cc1,"inconclusive: 39.8 µM [inhibitor, full curve]",–

Structure (SMILES),Potency,"activity change, negative = inhibition"
CCC(CC)NCc1ccc2c(c1)c1ccccc1n2CC,active: 44.7 µM,–
O=C(O)c1cccc(-n2cccc2/C=C2/NC(=O)N(Cc3ccccc3F)C2=O)c1,active: 50.1 µM,–
CCc1cccc(NC(=O)C(Cc2ccccc2)NS(=O)(=O)c2ccc3c(c2)c(=O)n(C)c(=O)n3C)c1 (stereo not given),"inconclusive: 50.1 µM [inhibitor, full curve, poor fit]",–
N#Cc1c(NC(=O)CN2CCOCC2)oc(-c2ccccc2)c1-c1ccccc1,"inconclusive: 89.1 µM [inhibitor, single point]",–
Cc1csc(NC(=O)CSc2nnc(-c3ccoc3C)n2CCc2ccccc2)n1,"inconclusive: 70.8 µM [inhibitor, single point]",–
COc1ccc(C(=O)On2c(-c3ccc(Br)cc3)nc3ccccc3c2=O)cc1,–,inactive: -11.4%
O=C(c1cccs1)N1CCN(Cc2ccccc2[N+](=O)[O-])CC1,active: 56.2 µM,–
Cc1ccc(C)c(-n2c(N)c(C(N)=O)sc2=S)c1,–,inactive: -4.79%
O=C1Nc2ccccc2C1C(C[N+](=O)[O-])c1ccccc1 (stereo not given),–,inactive: 3.1%
O=C(O)COc1ccc(/C=N/NC(=O)c2ccc(-c3csc(Nc4ccc(Cl)cc4)n3)cc2)cc1,active: 3.98 µM,–
CCOC(=O)C1CCCN(C(=O)c2ccc3[nH]c4c(c3c2)CC(C)CC4)C1 (stereo not given),active: 50.1 µM,–
Cc1ccc(NC(C)C(=O)N/N=C/c2c[nH]c3ccccc23)cc1 (stereo not given),"inconclusive: 44.7 µM [inhibitor, partial curve]",–
CCOc1c(Br)cc(Br)cc1/C=C1\SC(N)=NC1=O,"inconclusive: 89.1 µM [inhibitor, single point]",–
CCOCCCn1c(=S)[nH]c2ncccc2c1=O,–,inactive: -12.8%
CC1CCCCN1S(=O)(=O)c1ccc(C(=O)Nc2nnc(-c3ccco3)o2)cc1 (stereo not given),active: 89.1 µM,–
O=C(Nc1ccc(N2CCCCC2)c(Cl)c1)c1ccc(N2CCOCC2)c([N+](=O)[O-])c1,–,inactive: 6%
CCn1cc(/C=C/c2cc[n+](C)cc2)c2ccccc21,"inconclusive: 79.4 µM [inhibitor, single point]",–
CCOC(=O)C(=NC1CCS(=O)(=O)C1)NNc1ccccc1Cl (stereo not given),"inconclusive: 56.2 µM [inhibitor, partial curve]",–
COc1cccc(-n2cc(CNCc3c(C(=O)N(C)C)nc4ccc(Cl)cn34)cn2)c1,"inconclusive: 79.4 µM [inhibitor, single point]",–
CCOc1ccc(NC(=O)Cn2c(=O)c(CNc3ccc(OC)cc3)cc3ccc(OC)cc32)cc1,–,inactive: -19.1%
O=C1/C(=C/c2cccs2)CCC/C1=C\c1cccs1,active: 5.62 µM,–
c1cncc(CNc2ccc3c(c2)OCO3)c1,"inconclusive: 44.7 µM [inhibitor, partial curve]",–
CCOC(=O)c1cc(S(=O)(=O)N2CCN(c3cc(Cl)ccc3C)CC2)[nH]n1,"inconclusive: 89.1 µM [inhibitor, single point]",–
CCOC(=O)c1cc(=O)c2ccc(OCC(=O)Nc3ccccc3)cc2o1,–,inactive: -17.2%
C/C=C(\C)CN1CCN(c2ccccc2)CC1,"inconclusive: 44.7 µM [inhibitor, partial curve]",–
